In assay [1] the target is T1, proGDF11 (human) (human, UniProt O95390 25-407).
T1 construct: domain: proGDF11 (prodomain plus growth factor domain)
Description: ForteBio Octet BLI; antigen on biosensor, antibody in solution. For orientation: Biolayer interferometry detects binding as a change in optical thickness at a sensor tip.

The target in the next assay is T2, Mature GDF11 (UniProt O95390 299-407, limits assumed).
T2 construct: mature; also called GDF11 mature growth factor
The assay is described as above.

The target in another assay is T3, Mature TGFB1 (UniProt P01137 in part).
T3 construct: mature; also called mature TGFβ1
The assay is described as above.

The target in a further assay is T4, Mature Activin A (UniProt P08476 311-426).
T4 construct: mature; also called Activin A growth factor
T4 sequence (looked up): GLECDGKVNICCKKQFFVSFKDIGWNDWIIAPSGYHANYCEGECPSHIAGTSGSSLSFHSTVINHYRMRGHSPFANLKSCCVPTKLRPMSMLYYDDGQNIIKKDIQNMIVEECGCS
The assay is described as above.

The target in a further assay is T5, Pro Activin A (human, UniProt P08476 21-426).
T5 construct: domain: pro form (prodomain plus growth factor domain)
T5 sequence (looked up): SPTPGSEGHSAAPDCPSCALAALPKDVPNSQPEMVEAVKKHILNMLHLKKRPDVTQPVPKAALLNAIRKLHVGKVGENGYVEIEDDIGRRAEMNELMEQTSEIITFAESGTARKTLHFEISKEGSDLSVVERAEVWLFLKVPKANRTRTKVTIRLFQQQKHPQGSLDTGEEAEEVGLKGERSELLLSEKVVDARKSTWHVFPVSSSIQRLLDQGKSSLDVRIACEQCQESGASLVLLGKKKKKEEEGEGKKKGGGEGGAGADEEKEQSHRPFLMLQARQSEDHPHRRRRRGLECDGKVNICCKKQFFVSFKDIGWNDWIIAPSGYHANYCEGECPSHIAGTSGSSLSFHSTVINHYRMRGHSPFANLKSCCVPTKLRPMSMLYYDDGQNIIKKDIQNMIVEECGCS
Described as above.

The target in the next assay is T6, BMP10 (UniProt O95393 317-424, limits assumed).
T6 construct: mature
T6 sequence (looked up): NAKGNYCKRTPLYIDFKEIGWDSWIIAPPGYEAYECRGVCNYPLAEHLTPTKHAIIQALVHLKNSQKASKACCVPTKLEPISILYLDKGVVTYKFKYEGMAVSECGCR
Described as above.

The target of a further assay is T7, BMP 9 (UniProt Q9UK05 320-429, limits assumed).
T7 construct: mature
T7 sequence (looked up): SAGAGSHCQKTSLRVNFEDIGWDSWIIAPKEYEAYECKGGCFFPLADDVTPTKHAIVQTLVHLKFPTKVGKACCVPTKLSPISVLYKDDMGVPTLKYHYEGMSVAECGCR
The assay is described as above.

The target in assay [2] is T1, proGDF11 (human). Description: ForteBio BLI; biotinylated proGDF11 on streptavidin tip, 30 µg/mL antibody, response after 5 minutes of association relative to proGDF8.
The target of a further assay is proGDF8 (mouse) (mouse, UniProt O08689 25-376). Nature of the assay: cell-based or functional assay.

B1: Ab2 (germlined Ab1), IgG4 (S228P), lambda (antibody)
heavy: QVQLVESGGGVVQPGRSLRLSCAASGFTFSSYGMHWVRQAPGKGLEWVAVISYDGSNKYYADSVKGRFTISRDNSKNTLYLQMNSLRAEDTAVYYCARDLLVRFLEWSHYYGMDVWGQGTTVTVSSASTKGPSVFPLAPCSRSTSESTAALGCLVKDYFPEPVTVSWNSGALTSGVHTFPAVLQSSGLYSLSSVVTVPSSSLGTKTYTCNVDHKPSNTKVDKRV[gap - human IgG4 Fc with S228P (EU numbers)]
light: QSVLTQPPSASGTPGQRVTISCSGSSSNIGSNTVHWYQQLPGTAPKLLIYSDNQRPSGVPDRFSGSKSGTSASLAISGLQSEDEADYYCAAWDDSLNGVFGGGTKLTVLGQPKAAPSVTLFPPSSEELQANKATLVCLISDFYPGAVTVAWKADSSPVKAGVETTTPSKQSNNKYAASSYLSLTPEQWKSHRSYSCQVTHEGSTVEKTVAPTECS
In the case of B1, the binding result in the assay with proGDF11 (human) [1], in the assay with Mature GDF11, in the assay with Mature TGFB1, in the assay with Mature Activin A, in the assay with Pro Activin A and with BMP10 was “no binding (tested: 50 µg/mL)” in each case. Moreover, the binding result with BMP 9 is “no binding (tested: 50 µg/mL)”. Moreover, the “GDF11 response, expressed as a percentage of GDF8 response” value with proGDF11 (human) [2] came out at 0.81%. The “Activity Assay - 293T cells EC50” value in the assay with proGDF8 (mouse) came to 714 nM.

(Values after patent publication US20180344844A1 (SCHOLAR ROCK, published 2018).)
